Reference: article PMC4151078, “Visualization of the physical and functional interaction between hMYH and hRad9 by Dronpa bimolecular fluorescence complementation” (BMC Molecular Biology, 2014)
No constants are given. Whether binding was seen depends on the method and setting. For some of these results: In cells and extracts the contact can be indirect. Some binding calls cover weakened binding; strength is not graded here. For some of these results: Tags and fused reporters may be left off the sequences shown. One block for each binder: values may come before it.

Experiments:
[1] = biological target: T1, endogenous hRad9 (human (endogenous in HEK293)) (UniProt Q99638); test: co-IP; total lysates of HEK293 cells immunoprecipitated with hRad9 antibody; cells transfected with siHus1 or siGFP (Figure 1C), or treated or not with DNase for 20 min at 37°C (Additional file 1)
T1 sequence: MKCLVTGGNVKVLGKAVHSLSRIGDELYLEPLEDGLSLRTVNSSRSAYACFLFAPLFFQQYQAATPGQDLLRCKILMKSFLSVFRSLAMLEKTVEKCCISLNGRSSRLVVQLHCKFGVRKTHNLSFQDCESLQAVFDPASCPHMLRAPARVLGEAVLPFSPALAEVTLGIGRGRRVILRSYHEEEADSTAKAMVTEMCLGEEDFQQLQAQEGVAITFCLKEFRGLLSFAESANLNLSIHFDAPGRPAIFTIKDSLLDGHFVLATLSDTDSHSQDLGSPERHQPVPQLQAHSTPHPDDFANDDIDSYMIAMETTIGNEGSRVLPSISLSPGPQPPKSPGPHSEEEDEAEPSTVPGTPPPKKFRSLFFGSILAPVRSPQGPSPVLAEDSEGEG

[2] = biological target: T2, c-myc-hMYH-ΔC (amino acids 1-487) (human) (UniProt Q9UIF7); test: co-IP; HEK293 cells co-transfected with c-myc-tagged hMYH (full or deletion mutant) and FLAG-hRad9, 24 h; lysates immunoprecipitated with anti-c-myc antibody, blotted with anti-FLAG and anti-c-myc
T2 sequence: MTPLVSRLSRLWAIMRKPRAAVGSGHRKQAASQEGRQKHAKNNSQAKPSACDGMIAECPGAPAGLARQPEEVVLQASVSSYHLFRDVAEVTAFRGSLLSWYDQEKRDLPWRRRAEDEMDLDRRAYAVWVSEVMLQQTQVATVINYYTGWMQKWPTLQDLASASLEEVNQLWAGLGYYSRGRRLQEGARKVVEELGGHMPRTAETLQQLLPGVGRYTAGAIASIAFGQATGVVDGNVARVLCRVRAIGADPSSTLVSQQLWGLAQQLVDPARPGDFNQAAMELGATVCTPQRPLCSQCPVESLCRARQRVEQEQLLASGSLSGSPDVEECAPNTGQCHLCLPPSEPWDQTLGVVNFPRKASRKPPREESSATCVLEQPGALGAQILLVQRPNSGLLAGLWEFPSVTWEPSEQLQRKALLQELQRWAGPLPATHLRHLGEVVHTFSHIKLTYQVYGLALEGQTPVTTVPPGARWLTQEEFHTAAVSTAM

[3] = biological target: T3, c-myc-hMYH-ΔN (amino acids 75-547) (human) (UniProt Q9UIF7); test: as above
T3 sequence: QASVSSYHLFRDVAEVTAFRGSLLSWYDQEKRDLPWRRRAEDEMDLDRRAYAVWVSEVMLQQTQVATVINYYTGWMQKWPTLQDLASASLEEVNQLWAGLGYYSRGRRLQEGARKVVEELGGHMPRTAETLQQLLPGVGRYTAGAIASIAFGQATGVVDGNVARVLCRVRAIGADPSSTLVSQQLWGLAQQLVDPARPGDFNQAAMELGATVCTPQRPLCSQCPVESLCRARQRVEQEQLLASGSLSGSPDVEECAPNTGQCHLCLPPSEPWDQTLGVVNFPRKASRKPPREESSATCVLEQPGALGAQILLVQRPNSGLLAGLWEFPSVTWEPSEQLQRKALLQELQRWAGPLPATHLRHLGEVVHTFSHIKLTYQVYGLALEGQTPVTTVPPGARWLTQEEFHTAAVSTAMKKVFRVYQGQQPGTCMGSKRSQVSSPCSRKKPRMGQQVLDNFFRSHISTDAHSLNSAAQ

[4] = biological target: T4, c-myc-tagged hMYH (full-length, amino acids 1-547) (human) (UniProt Q9UIF7); test: as above
T4 sequence: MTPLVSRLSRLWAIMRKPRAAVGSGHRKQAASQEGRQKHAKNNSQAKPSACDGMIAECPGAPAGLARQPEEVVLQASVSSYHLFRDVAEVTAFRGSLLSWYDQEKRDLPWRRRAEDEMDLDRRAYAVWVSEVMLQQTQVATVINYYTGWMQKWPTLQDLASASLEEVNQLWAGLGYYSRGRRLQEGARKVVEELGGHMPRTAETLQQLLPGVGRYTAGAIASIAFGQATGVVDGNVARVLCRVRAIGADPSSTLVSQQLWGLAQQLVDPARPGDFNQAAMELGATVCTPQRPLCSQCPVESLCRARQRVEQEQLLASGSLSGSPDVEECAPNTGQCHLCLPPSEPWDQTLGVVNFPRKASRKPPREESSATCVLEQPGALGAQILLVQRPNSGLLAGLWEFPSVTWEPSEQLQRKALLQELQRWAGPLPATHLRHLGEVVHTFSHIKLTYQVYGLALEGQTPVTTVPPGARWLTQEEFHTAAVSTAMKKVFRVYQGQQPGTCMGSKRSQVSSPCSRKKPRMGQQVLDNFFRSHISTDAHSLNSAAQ

[5] = biological target: T5, c-myc-hMYH-ΔNC (amino acids 75-487) (human) (UniProt Q9UIF7); test: as above
T5 sequence: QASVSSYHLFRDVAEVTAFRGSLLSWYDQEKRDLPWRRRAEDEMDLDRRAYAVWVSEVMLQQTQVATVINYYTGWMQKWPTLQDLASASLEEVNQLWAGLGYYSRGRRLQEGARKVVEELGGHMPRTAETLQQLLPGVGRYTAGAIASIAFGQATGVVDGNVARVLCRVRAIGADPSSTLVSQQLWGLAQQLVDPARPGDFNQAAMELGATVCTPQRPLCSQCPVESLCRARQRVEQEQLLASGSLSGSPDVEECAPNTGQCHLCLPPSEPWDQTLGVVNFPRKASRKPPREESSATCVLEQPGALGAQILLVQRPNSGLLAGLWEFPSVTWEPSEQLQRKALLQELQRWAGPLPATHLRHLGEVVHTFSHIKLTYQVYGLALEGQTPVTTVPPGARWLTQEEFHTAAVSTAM

ECFP/hMYH (human) = biological target: T6, ECFP/hMYH (human) (UniProt Q9UIF7); test: FRET or BRET; HEK293 cells co-transfected with ECFP/hMYH and EYFP/hRad9, 24 h, with or without HU, fixed; confocal fluorescence microscopy, FRET at 440/535 nm
T6 sequence: T4 sequence

[6] = biological target: T7, hMYH-LDN (full-length hMYH fused to the Dronpa N-terminal fragment) (human) (UniProt Q9UIF7); test: split reporter; Dronpa-BiFC in HEK293 cells co-transfected for 24 h, fixed; confocal fluorescence microscopy, 488-nm excitation and 530-nm emission
T7 sequence: T4 sequence

[7] = biological target: T8, hMYH-ΔNC-LDN (amino acids 75-487 fused to the Dronpa N-terminal fragment) (human) (UniProt Q9UIF7); test: as above
T8 sequence: T5 sequence

[8] = biological target: T9, hMYH-ΔC-LDN (amino acids 1-487 fused to the Dronpa N-terminal fragment) (human) (UniProt Q9UIF7); test: as above
T9 sequence: T2 sequence

[9] = biological target: T10, hMYH-ΔN-LDN (amino acids 75-547 fused to the Dronpa N-terminal fragment) (human) (UniProt Q9UIF7); test: as above
T10 sequence: T3 sequence

[10] = biological target: T11, GST-hMYH-ΔNC (amino acids 75-487) (human) (UniProt Q9UIF7); test: pull-down; GST or GST-hMYH fusion on glutathione-Sepharose 4B beads, purified His-hRad9 added; 50 mM Tris-HCl pH 7.5, 150 mM NaCl, 1 mM EDTA, 0.3 mM DTT, 0.1% NP-40; 3 h at 4°C; blot with anti-GST and anti-His; both purified
T11 sequence: T5 sequence

[11] = biological target: T12, GST-hMYH-ΔN (amino acids 75-547) (human) (UniProt Q9UIF7); test: as above
T12 sequence: T3 sequence

[12] = biological target: T13, endogenous hMYH (human (endogenous in HEK293)) (UniProt Q9UIF7); test: co-IP; lysates of untransfected HEK293 cells; endogenous hMYH immunoprecipitated with anti-hMYH antibody (mouse IgG as control), blotted with anti-hMYH and anti-hRad9
T13 sequence: T4 sequence

- binding [2]: binds
- binding [3]: no binding
- binding [4]: binds
- binding [5]: no binding
B2: FLAG-tagged hRad9 (protein, UniProt Q99638 1-391)
chain: T1 sequence

- binding (ECFP/hMYH (human)): binds
B3: EYFP/hRad9 (protein, UniProt Q99638 1-391)
chain: T1 sequence

- binding [6]: binds
- binding [7]: no binding
- binding [8]: binds
- binding [9]: no binding
B4: DCL-hRad9 (Dronpa C-terminal fragment fused to hRad9) (protein, UniProt Q99638 1-391)
chain: T1 sequence

- binding [12]: binds
B6: endogenous hRad9 (protein, UniProt Q99638 1-391)
chain: T1 sequence

The next lines start with the binder.

B1: endogenous hMYH (protein, UniProt Q9UIF7 1-546)
chain: T4 sequence
- binding [1]: binds

B5: His-hRad9 (natural protein, human, UniProt Q99638 1-391, looked up)
chain: T1 sequence
notes: human Rad9 (hRad9), NM_004584; also called purified His-hRad9; His-purified hRad9 protein; source: bacterially expressed and purified
- binding [10]: no binding
- binding [11]: no binding
